The values that follow come from the supplement of paper PMC3334620.

Over roughly 33,000 sequences, “E-score (-0.5 to 0.5)” has its median near -0.012; the highest 2% begin near 0.29. This is one part of the list.

The assay has as its target T1, Ybr033w (UniProt P38073).
T1 sequence: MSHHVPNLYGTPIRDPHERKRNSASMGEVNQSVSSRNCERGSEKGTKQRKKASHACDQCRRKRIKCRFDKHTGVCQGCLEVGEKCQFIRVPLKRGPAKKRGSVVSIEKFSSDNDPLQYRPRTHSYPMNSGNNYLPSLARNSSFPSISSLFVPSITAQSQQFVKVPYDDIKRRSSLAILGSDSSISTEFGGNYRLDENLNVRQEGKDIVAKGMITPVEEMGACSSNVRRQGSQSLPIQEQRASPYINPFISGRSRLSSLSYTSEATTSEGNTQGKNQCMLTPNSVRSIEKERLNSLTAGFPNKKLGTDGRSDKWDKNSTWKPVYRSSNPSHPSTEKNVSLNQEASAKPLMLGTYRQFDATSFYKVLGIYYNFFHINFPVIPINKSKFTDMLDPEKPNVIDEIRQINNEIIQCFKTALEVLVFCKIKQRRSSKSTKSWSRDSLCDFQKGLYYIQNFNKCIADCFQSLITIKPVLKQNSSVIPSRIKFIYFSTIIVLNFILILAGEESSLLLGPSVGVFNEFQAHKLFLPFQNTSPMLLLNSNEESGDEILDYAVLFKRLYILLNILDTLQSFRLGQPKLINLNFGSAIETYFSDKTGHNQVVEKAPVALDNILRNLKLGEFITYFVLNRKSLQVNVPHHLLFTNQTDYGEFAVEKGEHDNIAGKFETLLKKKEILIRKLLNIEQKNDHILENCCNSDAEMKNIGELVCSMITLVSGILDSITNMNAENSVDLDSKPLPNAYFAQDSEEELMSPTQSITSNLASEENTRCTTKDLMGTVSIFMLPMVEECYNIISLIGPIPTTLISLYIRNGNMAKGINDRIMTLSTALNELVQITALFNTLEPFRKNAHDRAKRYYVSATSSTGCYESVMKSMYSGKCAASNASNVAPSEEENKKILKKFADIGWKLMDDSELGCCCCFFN
Put plainly: PBM E-score (8-mer binding enrichment) (E-score (-0.5 to 0.5)); higher = stronger / more preferred TF binding; most listed sequences are background and not binding sites. The note with it: protein concentration: 200 nM; construct: GST-full length. In short, it runs like this: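 For each ungapped eight-base word taken together with its reverse complement, the Universal PBM Analysis Suite assigned an E-score. Binding data came from GST-tagged yeast transcription factors, applied at about 100-200 nM, on universal all-10-mer Agilent arrays made double-stranded by primer extension. Fluorescent anti-GST marked bound protein, and scans were normalised with masliner.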
In the case of GACATCTA, the “PBM E-score” value amounted to 0.0843.

With CACGTGTA, the “PBM E-score” value is -0.0937.

Consider CCACATGG, for which the “PBM E-score” value is -0.15.

Turning to CGAGGCCG, the “PBM E-score” value was -0.301.

In the case of AAGTCTGA, the “PBM E-score” value is -0.179.

For CTAGGGAC, the “PBM E-score” value is -0.151.

GTGTCTCA: the “PBM E-score” value is -0.0927.

Turning to CACAGAAC, the “PBM E-score” value was -0.115.

Take CAGCCATA: the “PBM E-score” value is -0.122.

GAGGTCCA: the “PBM E-score” value was -0.261.

CAAACTGG: the “PBM E-score” value is -0.114.

As for GCAGTAGC, the “PBM E-score” value was -0.176.

AACGAATA: the “PBM E-score” value amounted to 0.00039.

As for CACCCTCG, the “PBM E-score” value was -0.134.

As to ACGGGGAT, the “PBM E-score” value is -0.105.

For the sequence CTTGGGTC, the “PBM E-score” value was -0.271.

Take AGGCAATA: the “PBM E-score” value is -0.0405.

TTGGAAAA: the “PBM E-score” value was found to be 0.298.

For TCGAGTAA, the “PBM E-score” value worked out at 0.165.

Take AGCTGTTG: the “PBM E-score” value was found to be 0.0239.

As for ATGAGAAG, the “PBM E-score” value was -0.0312.

As for AGGCGCCT, the “PBM E-score” value is -0.244.

As for ACGCGAGC, the “PBM E-score” value turned out to be 0.0484.

Consider GCTGTGCA, for which the “PBM E-score” value is -0.17.

For the sequence GGCAGGCC, the “PBM E-score” value was -0.276.

As for CCCCCCGC, the “PBM E-score” value was -0.378.

For the sequence GGCCAGCA, the “PBM E-score” value was -0.225.

CAAAGGTG: the “PBM E-score” value was -0.104.

Turning to CCATCAGC, the “PBM E-score” value was -0.0471.

With CCCAATCC, the “PBM E-score” value was -0.135.

GGAGACAA: the “PBM E-score” value is -0.00399.

With CCAGGTTC, the “PBM E-score” value was -0.269.

Turning to AATCCTAT, the “PBM E-score” value amounted to 0.251.

As to GCGACCCA, the “PBM E-score” value was -0.277.

With CTTTCCTC, the “PBM E-score” value was -0.0593.

As to AGAGGATA, the “PBM E-score” value amounted to 0.0706.

For the sequence GTTCCGGA, the “PBM E-score” value turned out to be 0.214.

With CCTGCCAG, the “PBM E-score” value is -0.2.

With ACGTTCCG, the “PBM E-score” value is -0.118.

On to AGTGGTAC, for which the “PBM E-score” value was -0.0555.

Regarding ATGATCCG, the “PBM E-score” value came to 0.412.

As to AAAACGAC, the “PBM E-score” value was -0.059.

With ATGCAGCG, the “PBM E-score” value was -0.107.

Consider AGAATAGG, for which the “PBM E-score” value is 0.228.

On to AGCTTCGC, for which the “PBM E-score” value is -0.21.

With TATTGTGA, the “PBM E-score” value stood at 0.105.

With AAAGACTA, the “PBM E-score” value is -0.116.

As for CGTCCTAG, the “PBM E-score” value was -0.0647.

As for CCCCATCA, the “PBM E-score” value is -0.143.

As to CAGCTATC, the “PBM E-score” value is -0.0703.

For ATCTAATA, the “PBM E-score” value was 0.266.

Take CGTAGATC: the “PBM E-score” value was -0.0069.

With ACTAGACA, the “PBM E-score” value worked out at 0.119.

With ATCCCCAT, the “PBM E-score” value was -0.14.

On to CCGTACGC, for which the “PBM E-score” value is -0.283.

ATGTATGC: the “PBM E-score” value is 0.254.

In the case of GCGGGAGC, the “PBM E-score” value is -0.293.

In the case of AAGCCGGT, the “PBM E-score” value was -0.053.

Take CAAGGGAG: the “PBM E-score” value was -0.12.

Consider GGATATTA, for which the “PBM E-score” value was determined as 0.144.

Turning to ACCTTACG, the “PBM E-score” value is 0.022.

CAACTCAG: the “PBM E-score” value is -0.106.

Regarding AGATGCAT, the “PBM E-score” value is -0.00621.

With ATGGCTAG, the “PBM E-score” value was -0.0576.

As for CATGATGC, the “PBM E-score” value worked out at 0.00494.

For ATAGCTTA, the “PBM E-score” value stood at 0.0381.

Turning to AACGTCGG, the “PBM E-score” value is -0.0284.

With GCAGCCCC, the “PBM E-score” value was -0.309.

ATGGCGCG: the “PBM E-score” value was -0.0534.

For CGTGTGCC, the “PBM E-score” value was -0.174.

Take AGGAGACC: the “PBM E-score” value was -0.278.

Consider CCGTGCGC, for which the “PBM E-score” value is -0.22.

Regarding TCGACAAA, the “PBM E-score” value is 0.209.

GCTAGCCC: the “PBM E-score” value was -0.211.

Regarding ATTTTCAG, the “PBM E-score” value came to 0.148.

For GGTAAGAA, the “PBM E-score” value is -0.0975.

ATCCTCTA: the “PBM E-score” value came out at 0.0223.

On to AGTAATGC, for which the “PBM E-score” value was found to be 0.0861.

Regarding AACCGAGA, the “PBM E-score” value stood at 0.138.

For the sequence ATTCGTAG, the “PBM E-score” value was determined as 0.0286.

With GTAAACCA, the “PBM E-score” value stood at 0.114.

CTAGCGGA: the “PBM E-score” value is -0.118.

Turning to CACGCGGG, the “PBM E-score” value was -0.242.

With CGAGGCTC, the “PBM E-score” value was -0.219.

CTCCCCAC: the “PBM E-score” value is -0.114.

In the case of ACGTATTC, the “PBM E-score” value was -0.0366.

For AACGCTGG, the “PBM E-score” value is -0.0678.

Consider AGCCGAAT, for which the “PBM E-score” value was -0.0347.

With GCTTCGCC, the “PBM E-score” value is -0.273.

In the case of CCTTATCG, the “PBM E-score” value was 0.158.

As for AGGTACGC, the “PBM E-score” value is -0.0892.

In the case of ACCAGCTG, the “PBM E-score” value is -0.205.

For the sequence ACTTGCGG, the “PBM E-score” value was -0.195.

As for AAGTCAGG, the “PBM E-score” value is -0.0306.

Take TACGTACA: the “PBM E-score” value was 0.116.

For the sequence CGCTAGGC, the “PBM E-score” value is -0.217.

With GGCCCCAA, the “PBM E-score” value was -0.197.

CATATCAA: the “PBM E-score” value came out at 0.24.

Regarding CAGGTATA, the “PBM E-score” value is -0.0294.

As to AAGATAGA, the “PBM E-score” value is 0.103.

On to ATCCAGAG, for which the “PBM E-score” value was 0.137.

As to AGTCAGCG, the “PBM E-score” value was -0.193.

As for GAACCACC, the “PBM E-score” value was determined as 0.0199.

As for GTGCAAAA, the “PBM E-score” value amounted to 0.0387.

Consider CTTGACGC, for which the “PBM E-score” value was -0.0854.

Consider TCGCAAGA, for which the “PBM E-score” value is -0.203.

Consider TCCCCTAA, for which the “PBM E-score” value is -0.208.

Regarding ACTGCTGC, the “PBM E-score” value was -0.0794.

For the sequence GTCGGAGA, the “PBM E-score” value came out at 0.0825.

On to CTGCGTAA, for which the “PBM E-score” value stood at 0.0284.
